Read counts are not given, so values of variants with three or more changes are uncertain.
B1: CPEB3 Ribozyme (parent)
chain: UAACAGGGGGCCACAGCAGAAGCGUUCACGUCGCAGCCCCUGUCAGAUUCUGGUGAAUCUGCGAAUUCUGCUGUAUAUCUC

Variants of: B1
Assay: self-cleavage, relative activity (ratio to wild type); higher = more cleavage; in vitro, sequencing
Procedure, shortened: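 Libraries of CPEB3 self-cleaving ribozyme mutants came from rounds of error-prone PCR and carried barcodes, which DNA sequencing matched to variants. In vitro transcription used T7 RNA polymerase at 37°C for 5 hours, with a further 15 min in DNase I before EDTA stopped the reaction; the ribozymes cleaved during both steps. The RNA was reverse transcribed with template switching and sequenced on Illumina. Relative activity is the cleaved/total read fraction of a variant divided by that of the unmutated ribozyme, averaged over three batches with at least 5 reads.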

Row | Variant | self-cleavage
1 | UAACGGGGGGCCACAGCAGAAGCGUUCACGUCGCAACCCCUGUCAGAUUCUGGCGAAUCUGCGAAUUCUGCUGUAUAUCUC [A5G G36A U54C] | 0.4
2 | UAACGGGGGGCCACAGCAGAAGCGUUCACGUCACAGCCCCUGUCAGAUUCAGGUGAAUCUGCGAAUACUGCUGUUUAUCUC [A5G G33A U51A U67A A75U] | 0.09
3 | UAACGGGGGGCCACAGCAGAAUCGUCCACGUCGCAGCCCCUGUCAGAUUCUGGUGAAUCUGCGAAUUCUGCUGUAUAUCUC [A5G G22U U26C] | 0.15
4 | UAACGGGGGGCCACAGCAGAAGCGUUCACGUCGCAGCCCCUGUCAGAUUCUGCUGAGUCUGCGAAUUCUGCUGUAUAUCCC [A5G G53C A57G U80C] | 0.18
5 | UAACGGGGGGCCACAGCAGAAGCGUUCACGUCGCAGCCCCUGUCAGAUUCUGGUAUAUCUGCGGAUUCUGCUGUAUAUCUC [A5G G55A A56U A64G] | 0.23
6 | UAACGGGGGGCCACAGCAGAAGCGUUCACAUCGCAGCCCCUGUCAGAUUCUGGUGGAUCUGCGAAUUCUGCUGUAUAUCUC [A5G G30A A56G] | 0.18
7 | UAACGGGGGGCCACAGCAUAAGCGUUCGCGUCGCAGCCCCUGUCAGAUUCUGGUGAAUCUGCGAAUUCUGCUGUAUAUCUC [A5G G19U A28G] | 0.35
8 | UAACGGGGGGCCACAGCAGAAGCGUUCACAUCGCAACCCCUGUCAGAUUCUGGUGAAUCUGCGACUUCUGCUGUAUAUCUC [A5G G30A G36A A65C] | 0.38
9 | UAACGGGGGGCCACAGCAGAAGCAUUCACGUCGCAGCCCCUGUCAGAUUCUGGUGAAUCCGCGAAUUCUGCUGUAUGUCUC [A5G G24A U60C A77G] | 0.06
10 | UAACGGGGGGCCACAGCAGAAGCGUUCACGUCGCAGCCCCUGUCAGAUUCUAGUGAAUCUGUGAAUUCUGCUGUAUAUCUC [A5G G52A C62U] | 0.27
11 | UAACGGGGGGCCACAGCAGAAUCGUUCACGACGCAGCCCCUGUCAGAUUCUGGUGAAUCUGCAAAUUCUGCUGUAUAUCUC [A5G G22U U31A G63A] | 0.18
12 | UAACGGGGGGCCACAGCAGAAGCGUUCACGUCGCAGCCCCUGUCAGAUUCUGGUGAAUCUGCAAUUUCUGCCGUAUAUCUC [A5G G63A A65U U72C] | 0.37
13 | UAACGGGGGGCCACAUCAGUAGCGUUCACGCCGCAGCCCUUGUCAGAUUCUGAUGAAUCUGCGAAUCCUGCUGUAUAUCUC [A5G G16U A20U U31C C40U G53A U67C] | 0
14 | UAACGGGGGGCCACAGCAGAAGCGUUCACGUCGCAGCCCCUGUCAGAUUCUGGUUAAUCUGCGAAUUCUGCUGUACAUCUC [A5G G55U U76C] | 0.41
15 | UAACGGGGGGCCACAGCAGAAGCCUCCACGUCGCAGCCCCUGUCAGGUUCUGGUGAAUCUGCGAAUUCUGCUGUAUAUCUC [A5G G24C U26C A47G] | 0.17
16 | UAACGGGGGGCCACAGCAGAAGCGUUCACGUCACAGCCCCUGUCAGUUUCUGGUGAAUCUGCGAAUUCUGCUGUAUAUCUC [A5G G33A A47U] | 0.29
17 | UAACGGGGGGCCACAGCAGAAGCGUUCACGUCGCAGCCCCUGUCAGAUUCUGGUUAAUCCGCGAAUUCAGCUGUAUAUCUC [A5G G55U U60C U69A] | 0.17

Row | Variant | self-cleavage
18 | UAACGGGGGGCCACAGCAGAAGCAUUCACGUCGUAGCCCCUGUCAGAUUCUGGUGAAUCUGCGAAUUCUGCUGUAUAUCUC [A5G G24A C34U] | 0.09
19 | UAACGGGGGGCCACAGCAGAAGCGUUCACGUCCCAGCCCCUGUCAGAUUCUGGAGAAUCAGCGAAUUCUGCUGUAUAUCUC [A5G G33C U54A U60A] | 0.13
20 | UAACGGGGGGCCACAGCAGAAGCGUUCACGUCACAGCUCCAGUCAGAUUCUGGUGAAUCUGCGAAUUCUGCUGUAUAUCUC [A5G G33A C38U U41A] | 0.47
21 | UAACGGGGGGCCACAGCAGAAGCAUACACGUCGCAGCCCCUGUCAGAUUCUGGUGGAUCUGCGAAUUCUGCUGUAUAUCCC [A5G G24A U26A A56G U80C] | 0.35
22 | UAACGGGGGGCCACAGCAGAAGCGUUCACGUCCCAGCCCCUGUCAGAUUCUGGAGAAUCUGCGUAUUCUGCUGUAUAUCUC [A5G G33C U54A A64U] | 0.17
23 | UAACGGGGGGCCACAGCAGAAACGUUCACGUCGCAGCCCCUGUCAGAUACUGGUGAAUCUGCGAAUUCUGCCGUAUAUCUC [A5G G22A U49A U72C] | 0.23
24 | UAACGGGGGGCCACAGCAGAAGCGUUCACGUCGCACCCCCUGUCUGAUUCUGGCGGAUCUGCGAAUUCUGCCGUAUGUCUC [A5G G36C A45U U54C A56G U72C A77G] | 0.06
25 | UAACGGGGGGCCACAGCAAUAGCGUUCACGUCGCAGCCCCUGUCAGAUUCUGGUGAUUCUGCGAAUUCUGCUGUAUAUCUC [A5G G19A A20U A57U] | 0.41
26 | UAACGGGGGGCCACAGCAGAAGCGUUCACGUCACAGCCCCUGUCAGAUCCUGGUGAAUCUGCGAAUUAUGCUGUAUAUCUC [A5G G33A U49C C68A] | 0.1
27 | UAACGGGGGGCCACAGCAGAAGCGUUCACAUCGCAGCCCCUGUCAGAUUCUGGCGUAUCUGCGAAUUCUGCGGUAUUUCUC [A5G G30A U54C A56U U72G A77U] | 0.01
28 | UAACGGGGGGCCACAGCAGAAGCGUUCACUUCGCAGCCCCUGUCAGAUUCUGGUGAAUCUGCGAAUUCUGCUAUAUAUCUC [A5G G30U G73A] | 0.52
29 | UAACGGGGGGCCACAGCAGAAACGUUCACGUCGCAGCCCCUGUCAGAUCCUGGGGAAUCUGCGAAUUCUGCUGAAUAUCUC [A5G G22A U49C U54G U74A] | 0.19
30 | UAACGGGGGGCCACAGCAGAAGCGUUCACGUCGCAACCCCUGUCAGAUUCUGGUGAAUCUGCGAAUCCUGCUGUAAAUCUC [A5G G36A U67C U76A] | 0.57
31 | UAACGGGGGGCCACAGCAGAAGCGUUCACGUCGCAGCCCCUGUCAGAUUCUGAUGAAUCUGCGAGUUCUGUUGUAUAUCUC [A5G G53A A65G C71U] | 0.26
32 | UAACGGGGGGCCACAGCAGAAACGUUCACGUCGCAGCCUCUGUCAGAUUCUGGUGAGUCUGCGAAUUCAGCUGUAUAUCUC [A5G G22A C39U A57G U69A] | 0.17
33 | UAACGGGGGGCCACAGCAGAAGCUUUCACGUCGCAGCCCCUGUCAGAUUCUGGAGUAUCUGCGAAUUCUGCUGUAUAUCUC [A5G G24U U54A A56U] | 0.21
34 | UAACGGGGGGCCACAGCAGAAGCGUUCACUUCGCAGCCCCUGUCAGAUUCUGGUGAGUCUGCGAAUUCUGCUGUUUAUCUC [A5G G30U A57G A75U] | 0.26
